# The full ranking holds about 4,500 sequences; the median of “median log2 fold change of GCK-ALFA target abundance (FLAG IP / Myc IP barcode read proportion)” is about 0.078, and the lowest 2% start at about -0.6. The list shows a part of the results.
# B1: GBRAP_11_2612 (protein)
# chain: SKEIKKEMAKLAEEAAKVIEELLEKGVDDEELQKKAEKLLKELAELVKKYGDKADQTLVEVAKELLKEAKEDPENKEFYWEQLLAAMRVLSGNFLLDIEE
# B2: GBRAP_52_5895 (protein)
# chain: KAEEVLKLLKKAVDAVAEGKEEEARKYILEAVKVAVELSEEEVRKVAKEAAKYAAEKSKEVFEKFLELVLEVLDEEEDLTEDEEAVLETLAAEFAKVYLA
# B3: GBRAP_14_3787 (protein)
# chain: MEKALALLDEAAAEIKAEAARIAPEKAAELGALIDELFAATRAEIKATGDAVAAVEALRDRLLAGAAEILADADEETRAALLAAIDDILTETELRLEELE
# B4: GBRAP_160_4400 (protein)
# chain: KEKFEKTKKEITEIFDELEELIKGQSKEERRVIIRVSFGQVIMEIFENDAFTDEQEEEFSKIVDEYLERALAAVDEGLEAVLKVIREARDELLAFIESLE
# B5: GBRAP_160_4654 (protein)
# chain: SAEVEALIARIRAILDEAVAMMVGETHEQRVAIARDMRGEILLELEESPEVSEEAEDAVDAIMDALVATIAANPDLTDEELAALFAEAAAAIEATLKALA
# B6: GBRAP_160_4702 (protein)
# chain: SETAEELKKYVEEVFEEAKELIKGETREQRAIIIEGAIGEILMELAENEKATDELEDEVDKIGDELVETILKNENITDEELEELIDEAVKKMKEAIDKHL
# B7: GBRAP_14_3840 (protein)
# chain: REEVRRLLLEAVERAVEEVRKFAPEEARERVEALREVLRRAVDEGLETGDLEEAERRLVEVAEAAVRELFADLPPEERGALVAVAVDELVEGFEELEERL
# B8: GBRAP_128_3278 (protein)
# chain: ADPAIVARARAFVEAIAAADLETARELAEEFAAWLGSVSVEQAATAVAVVKERLGELSVEKLEVLADVLREQRPLFDPEKANLVADLEVEALNEAEEKEE
# B9: GBRAP_78_6577 (protein)
# chain: EVEELVDKAIELLGKAASLLSKQKTEEANDILGEVIDAISYLVEAEENGFDLELLEKALEEAKKALELVKKQKSEEAKEVAKLLEEAIELLEKAIKLLKE
# B10: GBRAP_160_4295 (protein)
# chain: METLEELKELIEETIERTAELMVGESAEQRATIVAGELGSLIYELSERPEVSDETIDKFVEIRDELVAYILANPDLTDEELRELLEEAREKMIEVLEEDF
# B11: GBRAP_128_3560 (protein)
# chain: SVEEAVARARELLERIRASDVEAAREAARELAALLEAADPEALEAIVAEILERLPELSVEHLEVLADVFREAMPSADPRTAEALAEIEVEALNEAEEKEE
# B12: GBRAP_106_2564 (protein)
# chain: AKLEELKAFLREKLREEWAKVPAVTDAIVERFGEDREEATRAVRAHALDYVNDEVRRKMKSLGIDNPELIRRLRETLHALRDAPLEEQIAAAEAVLEEGL
# B13: GBRAP_35_5613 (protein)
# chain: EDVQLAVDSFVDMAEAIIELIPEIDDETLAALAQSLIKFAKSLLKEEKNNKEALEKIKEAMEKLLEALKKYRSDNPLIQKVAKEVQEVIKEAEKAIKEVK
# B14: GBRAP_160_4387 (protein)
# chain: GEELEKLAKEIEKLRKEFVEEAKDLNTEETRTLAKGVLAEVAALVFENEAVSEETQDKIFEIIDDALEEIDENADAPPEEIVAITTEAFDKIIKLVKEEK
# B15: GBRAP_184_5129 (protein)
# chain: TVVHETVEGTTADKLIADAKAVVDAAAARGERLNLHVIAENMSVDEIITVIKALGAIKAAHPEVTIILDVLDELSEEEIDRLVKAADEAGVRLVVAIKEE
# B16: GBRAP_78_6632 (protein)
# chain: EVEELVDKALEELGRAARLAQKLPPEAQNEVLDLIVDAASDLLEAEENGFDLKLLEEALAHAEAALKKVKELDLPEAKALAEELKKAIELLKKAIELVKK
# B17: GBRAP_184_5169 (protein)
# chain: MVLEFEIEVKDVAEAKAKIAAIAEEVKGKKAELYVIVEVERLTVEIAKAIIAGLKAIKDAGYVTSITVEFTGEIDEEALDTAIKLADEAGIKLVVAIDEE
# B18: GBRAP_160_4000 (protein)
# chain: MEEIEELKEEIEEIIDETIAAMEGLTPEERLTLVRGMVGEIIQLVEDSPAVSDEAEDEIAELGDELVEEVEANRDAPLEVWRELLERFLEEIKKILDKEE
# B19: GBRAP_172_5001 (protein)
# chain: GVTLLELDLLGLSREEAVAAATAAVKAAIAATGADLVVAVVADDQATVDAVEAAVKAVAAAAGKKVVVVGEAYRSEADRARVRAAAEAEKINLEYEQEEK
# B20: GBRAP_166_4887 (protein)
# chain: SAAERQAAADALRKETIAELKKLSDSEVLEKMDIVADYVERMKELGFSKEEIVKTTIEIMKEVKATKQQVNAAAAVVIAFADLDEEEIDLLDKLIKELFA
# B21: GBRAP_26_5501 (protein)
# chain: IEEKLKEAEEELKKAAKELLDPELAAVLNAEIDDIFAEAEDELEENKDDPEKQKKIVEEMEKELKKAVEELGVPEEAAKKLKELIKEKAKEIKEYIEKIA
# B22: GBRAP_184_5160 (protein)
# chain: KVLEKTIEASNLEEVKEKLKEVREEAKKTKGDLYVILRLKNPTKEMLKLILDELGEILKEGLAKRVVLGIENDLDEEMIDFVVERADEEGVQVVIAISDE
# B23: GBRAP_95_7016 (protein)
# chain: DDDQLAVESLAEALEAAVDLGDEEAAKKYAKEAVKLVAAHPEAKFIPDLSPEAVKVLIEAAKETLSPEETAAVLAKLAASLKDPEAKALAEAALAEVEAA
# B24: GBRAP_160_4679 (protein)
# chain: SMKVEKAKKEIDEEFAFVLSLHDEVTPEQLAAAVRVAFGELKLYLEELGLLTDEVEEEIDDEEDEIVDAILANPDITREEFAALLEEAREEIVEELEKAD
# B25: GBRAP_9_7136 (protein)
# chain: MSEVVEKIIELFKEAEEDILKVVPEEYKPLVKEVFDEAIKKLKELQKDKNLTLEKLRKTVEELIAKMKEIFDANLPPDVARMVNAILYTMEEEIEEILEE
# B26: GBRAP_153_3946 (protein)
# chain: GAEAAARLERALALLERIRAEGGDPALIRELAALIRSLTPEQRLEVARAMNALSPELVHRIFRVLATEEGFSVEELLEMTTELDLEHEAAALEAIVEAQK
# B27: GBRAP_52_6009 (protein)
# chain: MREELRERLEEALALVRAGRLEEARALVTELVESLDEEELELLIELLAEMAREAAPEDFDAVWTLAELVAEEMRRAGKDEVLADLLEARVAAALYEAEQR
# B28: GBRAP_159_3959 (protein)
# chain: MEARLAALRADLEALGASPELIAAAVEAVELAEEGEDAESIAAHLIHLYTVLGATTEEILTVLSHLPPELAREVAEILAEWAEEQGDAELAAALRAFLAA
# B29: GBRAP_52_5912 (protein)
# chain: MREELREKAEEILELVKAGKLEEARELARELVEELSEEELELFIEEFERLVLEAPKEELPYFWKAAEIIAEELEEEGKDEVLADLLLSRTAAAIYKVLQK
# Target: GABARAP, O95166
# Assay: median log2 fold change of GCK-ALFA target abundance (FLAG IP / Myc IP barcode read proportion) (log2 ratio); each designed protein is fused to an ALFA-tag nanobody in HEK293 cells to bring the named protein to FLAG-tagged glucokinase (GCK); Myc marks an untargeted standard; higher = target protein stabilised (more abundant)
# Conditions: target protein: 3xFLAG-MCP-GCK-ALFA reporter; HEK293 landing pad (RPLP)
# Summary of the method: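 HEK293 landing-pad cells received a recombined binder library fused to the ALFA nanobody and were induced with 2 μg mL^−1 doxycycline, then transfected with a plasmid encoding a FLAG-tagged target and a Myc-tagged standard. Lysates were collected after 48 h for anti-FLAG and anti-Myc immunoprecipitation, and the circular RNA barcodes were reverse transcribed, amplified and sequenced. Target abundance for each binder is the median log2 ratio of FLAG to Myc barcode read proportions. Barcodes had to reach a proportion of at least 10^−7 in both replicates, each binder needed at least 3 barcodes per replicate, a pseudocount of 10^−6 was applied, and the two replicates were pooled.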
# Sequence of GABARAP, O95166 (O95166 whole entry, the tested form may be a part): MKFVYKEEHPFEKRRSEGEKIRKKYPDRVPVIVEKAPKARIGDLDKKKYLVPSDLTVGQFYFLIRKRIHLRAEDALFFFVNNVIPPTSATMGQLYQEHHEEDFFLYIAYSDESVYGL
row,Binder,median log2 fold change
1,B1,0.16
2,B2,0.0362
3,B3,0.248
4,B4,-0.211
5,B5,-0.104
6,B6,-0.134
7,B7,0.0661
8,B8,0.304
9,B9,-0.0482
10,B10,-0.207
11,B11,0.103
12,B12,0.0418
13,B13,-0.07
14,B14,0.187
15,B15,-0.158
16,B16,-0.0489
17,B17,0.108
18,B18,-0.0825
19,B19,0.235
20,B20,0.173
21,B21,0.308
22,B22,-0.121
23,B23,0.252
24,B24,-0.296
25,B25,0.224
26,B26,0.106
27,B27,-0.0383
28,B28,0.124
29,B29,-0.524
